The values that follow come from patent publication US20260116960A1 (SHANGHAI HONGCHENG BIOPHARMACEUTICAL, published 2026).

Assay [1] concerns the target T1, human PD-1 on the cell surface (human, UniProt Q15116 25-288).
T1 construct: whole, on cells; also called cell surface PD-1
Kind of assay: flow cytometry, 293T-hPD-1 cells, batch FACS#2. The protocol:
After centrifugation at 300 g for 5 minutes, the supernatant was discarded. The antibodies were serially diluted 3-fold with FACS buffer to obtain two gradient series solution FACS #1 and FACS #2, with the starting concentration of 200 nM (Table 5, FACS #1) or 100 nM (Table 5, FACS #2, FIG. 2), respectively. Then 100 μL/well was added to a 96-well plate in triplicate, mixed, and incubated at 4° C. for 60 min. The plate was centrifuged and washed three times with FACS buffer. 100 μL/well of 1:800 diluted AF647-anti-hIgG(H+L) (Jackson, Catalog No.: 109-605-003) was added and incubated at 4° C. for 50 minutes. After washing the plate three times with FACS buffer, 100 μL/well of FACS buffer was added to resuspend the cells, and the fluorescence signal was detected on a flow cytometer (BECKMAN COULTER cytoFLEX). The binding activity was fitted using a four-parameter model to calculate the EC₅₀ value of each antibody binding to PD-1.

For assay [2], the target named is T2, human CTLA-4 on the cell surface (human, UniProt P16410 36-223).
T2 construct: whole, on cells; also called CHO-hCTLA-4 cells; CHOK1-hCTLA4 cells
Kind of assay: flow cytometry, CHO-hCTLA-4 cells, batch FACS#3.

For assay [3], the target named is T1, human PD-1 on the cell surface. Kind of assay: flow cytometry competition, 293T-hPD-1 cells, biotin-human PD-L1. Here is the method:
50 μL of antibody solution serially diluted 3-fold in FACS buffer was added in triplicate, with a starting concentration of 200 nM. After mixing, incubated at 4° C. for 60 minutes. After washing three times with FACS buffer, 100 μL/well of 1:800 diluted PE Streptavidin was added and incubated at 4° C. for 50 min. After washing three times with FACS buffer, 150 μL/well of PBS was added to resuspend the cells, and the fluorescence signal was detected on a flow cytometer (BECKMAN COULTER cytoFLEX). The four-parameter model was used to fit the binding activity and the IC₅₀ value of the blocking activity of each antibody was calculated.

The target of assay [4] is T3, Biotinylated Human VEGF165 (Acro, Catalog No. VE5-H82Q0) (human, UniProt P15692-4 27-191, biotinylated (site not stated)).
T3 construct: Bought protein; also called Biotinylated-hVEGF165; Biotin-hVEGF165
T3 sequence (looked up): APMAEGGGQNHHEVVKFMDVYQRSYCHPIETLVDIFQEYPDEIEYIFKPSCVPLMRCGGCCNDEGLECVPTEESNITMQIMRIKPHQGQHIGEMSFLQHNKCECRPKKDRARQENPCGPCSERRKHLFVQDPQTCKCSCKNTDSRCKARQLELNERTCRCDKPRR
Kind of assay: sandwich ELISA: antibody titrated on coated human PD1-his, detected with biotinylated hVEGF165 and streptavidin-HRP.

Assay [5] has as its target T4, human CTLA-4 protein (Acro, Catalog No. CT4-H52H9) (human, UniProt P16410 36-161).
T4 construct: Bought protein
Kind of assay: BLI (Octet RED96e), antibody on AHC sensor, antigen as analyte 6.25-100 nM, 1:1 model. Here is the method:
(§1) Octet® RED96e (ForteBio) was used to detect the affinity of trispecific antibodies to human PD-1, CTLA-4 and VEGFA. The specific method was as follows: the AHC Sensor was immersed in PBST (PBS containing 0.02% Tween) buffer for 10 minutes to activate the Sensor. The ligand (antibody to be tested) was diluted to 5 μg/mL with PBST buffer. […] The diluted ligand and analyte were added to the corresponding wells at 200 μL/well in triplicate. Program parameter settings: loading: 180 s, association: 180 s, dissociation: 600 s, regeneration: Gly-HCl pH 1.5, 30s, regeneration 3 times. […] Curve fit acceptance criteria: Full R\hat{ }2≥0.95.

The target in assay [6] is T5, human VEGF (ACRO, Catalog No. VE5-H4210) (human, UniProt P15692-4 27-191).
T5 construct: Analyte of the Octet assay; Bought protein
T5 sequence (looked up): T3 sequence (looked up)
The description is as above. The protocol:
as §1

In assay [7] the target is T6, human PD-1 protein (Acro, Catalog No. PD1-H5221) (human, UniProt Q15116 partial chain).
T6 construct: Bought protein; also called human PD1-his; not shown: his tag
The assay is described as above. The protocol: as §1

Assay [8] concerns the target T7, human VEGF165-his protein (Acro, Catalog No. VE5-H5248) (human, UniProt P15692-4 27-191).
T7 construct: Bought protein; also called hVEGF165-His; VEGFA; not shown: his tag
T7 sequence (looked up): T3 sequence (looked up)
Kind of assay: competitive ELISA, VEGF165-His coated, biotin-human KDR.

Assay [9] has as its target T2, human CTLA-4 on the cell surface. Kind of assay: flow cytometry, CHO-hCTLA-4 cells, batch FACS#4.
For assay [10] the target is unchanged. Kind of assay: flow cytometry competition, 293T-hPD-1-hCTLA-4 cells (PD-1 co-expressed), biotin-human CD80. The protocol:
PD-1 and CTLA-4 are co-expressed on functionally exhausted T cells in the tumor microenvironment, and the expression level of PD-1 is higher than that of CTLA-4. […] 200 μL of the cells were added to a 96-well U-bottom plate, approximately 1.4×10⁵ cells/well. After centrifugation at 300 g for 5 minutes, the supernatant was discarded. […] After washing three times with FACS buffer, 100 μL/well of 1:800 diluted PE Streptavidin was added and incubated at 4° C. for 50 min. After washing three times with FACS buffer, 150 μL/well of PBS was added to resuspend the cells, and the fluorescence signal was detected on a flow cytometer (BECKMAN COULTER cytoFLEX). The binding activity was fitted using a four-parameter model, and the IC₅₀ value of the blocking activity of each antibody was calculated.

Assay [11] deals with T8, human VEGFA 165 protein (human, UniProt P15692-4 27-191).
T8 sequence (looked up): T3 sequence (looked up)
Kind of assay: cell-based or functional assay.

Assay [12] addresses T2, human CTLA-4 on the cell surface. Kind of assay: flow cytometry competition, CHO-hCTLA-4 cells, biotin-human CD80. Here is the method:
CHO-hCTLA-4 cells were obtained by trypsin digestion, washed twice with PBS containing 2% FBS (FACS buffer), and resuspended in FACS buffer. 200 μL of the cells were added to a 96-well U-bottom plate, approximately 2×10⁵ cells/well. After centrifugation at 300 g for 5 minutes, the supernatant was discarded. […] After washing three times with FACS buffer, 100 μL/well of 1:800 diluted PE Streptavidin was added and incubated at 4° C. for 50 min. After washing three times with FACS buffer, 150 μL/well of PBS was added to resuspend the cells, and the fluorescence signal was detected on a flow cytometer (BECKMAN COULTER cytoFLEX). The four-parameter model was used to fit the binding activity and the IC₅₀ value of the blocking activity of each antibody was calculated.

Assay [13] has as its target T3, Biotinylated Human VEGF165 (Acro, …). Kind of assay: flow cytometry: antibody titrated on activated human T cells, detected with 2 ug/mL biotinylated human VEGF165 and PE streptavidin. Here is the method: After mixing, incubated at 4° C. for 60 minutes. […] The binding activity was fitted using a four-parameter model, and the EC₅₀ value of each antibody was calculated.

In assay [14] the target is T9, Biotinylated-hCTLA4 (Acro, Catalog No. CT4-H82E3) (human, UniProt P16410 36-161, biotinylated (site not stated)).
T9 construct: Bought protein
Kind of assay: sandwich ELISA: antibody titrated on coated human PD1-his, detected with biotinylated hCTLA4 and streptavidin-HRP.

T2 sequence (P16410 36-223): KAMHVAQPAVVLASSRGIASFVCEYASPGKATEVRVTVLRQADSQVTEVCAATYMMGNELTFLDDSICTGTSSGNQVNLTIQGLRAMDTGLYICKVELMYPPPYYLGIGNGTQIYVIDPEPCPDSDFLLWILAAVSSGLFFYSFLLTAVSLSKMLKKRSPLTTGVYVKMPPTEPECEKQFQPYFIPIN
T1 sequence (Q15116 25-288): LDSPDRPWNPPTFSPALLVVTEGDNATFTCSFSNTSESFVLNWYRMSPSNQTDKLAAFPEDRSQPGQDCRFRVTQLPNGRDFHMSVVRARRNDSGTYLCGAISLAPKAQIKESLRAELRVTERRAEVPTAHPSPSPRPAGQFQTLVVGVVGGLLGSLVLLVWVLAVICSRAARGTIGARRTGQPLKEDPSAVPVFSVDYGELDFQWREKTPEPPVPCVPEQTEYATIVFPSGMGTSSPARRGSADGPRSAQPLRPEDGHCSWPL

B1: HC010-F23 (trispecific antibody, human IgG4 S228P, kappa)
heavy: EVQLVESGGGLVQPGGSLRLSCAASGFTFSSYGMSWVRQAPGKCLEWVSTISGGGRDTYYPDSVKGRFTISRDNSKNTLYLQMNSLRAEDTAVYYCARQNGITWFADWGQGTLVTVSSGGGGSGGGGSGGGGSGGGGSDIQMTQSPSSLSASVGDRVTITCRASESVDNYGISFMNWYQQKPGKAPKLLIYAASNQGSGVPSRFSGSGSGTDFTLTISSLQPEDFATYYCQQSKEVPWTFGCGTKVEIKGGGGSGGGGSGGGGSGGGGSEVQLLESGGGLVQPGGSLRLSCAASGSIFSINHMAWYRQAPGKQRELVAGVNSRGTTNYVDSVKGRFTISRDNSKNTLYLQMNSLRAEDTAVYYCRALGGAVAAWGQGTLVTVSSGGGGSGGGGSGGGGSGGGGSEVQLVESGGGLVQPGGSLRLSCAASGYTFTNYGMNWVRQAPGKGLEWVGWINTYTGEPTYAADFKRRFTFSLDTSKSTAYLQMNSLRAEDTAVYYCAKYPHYYGSSHWYFDVWGQGTLVTVSSASTKGPSVFPLAPCSRSTSESTAALGCLVKDYFPEPVTVSWNSGALTSGVHTFPAVLQSSGLYSLSSVVTVPSSSLGTKTYTCNVDHKPSNTKVDKRV[human IgG4 Fc with S228P (EU numbers) not spelt out]
light: DIQMTQSPSSLSASVGDRVTITCSASQDISNYLNWYQQKPGKAPKVLIYFTSSLHSGVPSRFSGSGSGTDFTLTISSLQPEDFATYYCQQYSTVPWTFGQGTKVEIKRTVAAPSVFIFPPSDEQLKSGTASVVCLLNNFYPREAKVQWKVDNALQSGNSQESVTEQDSKDSTYSLSSTLTLSKADYEKHKVYACEVTHQGLSSPVTKSFNRGEC
notes: light: bevacizumab VL-kappa; also called H010-F23
Take B1: the EC50 in [1] turned out to be 2.13 nM; in [2], 5.43 nM; in assay [4], 0.054 nM; in assay [9] it was 5.43 nM; in [13], 0.377 nM; in assay [14], 0.25 nM. For the same molecule, the IC50 in assay [3] worked out at 7.4 nM; in assay [8], 4.91 nM; in assay [10], 0.096 nM; in assay [12], 34.8 nM. Also, the Kd in assay [5] is 1.5 nM; in assay [6], 9.55 nM; in assay [7] it was 4.67 nM. Besides, in [11], the “IC50, inhibition of VEGFA-induced HUVEC cell proliferation (CellTiter-Glo)” value stood at 0.828 nM.

B2: HC010-F24 (trispecific antibody, human IgG4 S228P, kappa)
heavy: EVQLVESGGGLVQPGGSLRLSCAASGYTFTNYGMNWVRQAPGKGLEWVGWINTYTGEPTYAADFKRRFTFSLDTSKSTAYLQMNSLRAEDTAVYYCAKYPHYYGSSHWYFDVWGQGTLVTVSSASTKGPSVFPLAPCSRSTSESTAALGCLVKDYFPEPVTVSWNSGALTSGVHTFPAVLQSSGLYSLSSVVTVPSSSLGTKTYTCNVDHKPSNTKVDKRV[human IgG4 Fc with S228P (EU numbers) not spelt out]AGGGGSGGGGSGGGGSGGGGSEVQLVESGGGLVQPGGSLRLSCAASGFTFSSYGMSWVRQAPGKCLEWVSTISGGGRDTYYPDSVKGRFTISRDNSKNTLYLQMNSLRAEDTAVYYCARQNGITWFADWGQGTLVTVSSGGGGSGGGGSGGGGSGGGGSDIQMTQSPSSLSASVGDRVTITCRASESVDNYGISFMNWYQQKPGKAPKLLIYAASNQGSGVPSRFSGSGSGTDFTLTISSLQPEDFATYYCQQSKEVPWTFGCGTKVEIKGGGGSGGGGSGGGGSGGGGSEVQLLESGGGLVQPGGSLRLSCAASGSIFSINHMAWYRQAPGKQRELVAGVNSRGTTNYVDSVKGRFTISRDNSKNTLYLQMNSLRAEDTAVYYCRALGGAVAAWGQGTLVTVSS
light: B1 light
notes: light: bevacizumab VL-kappa; also called H010-F24
For the molecule B2, the 50% effective concentration (EC50) came to 7.91 nM in assay [1], 6.5 nM in [2] and 6.5 nM in assay [9]. The IC50 was found to be 15.6 nM in [3], 5.87 nM in [8], 0.309 nM in [10] and 36.7 nM in [12].

B3: HC010-F22 (trispecific antibody, human IgG4 S228P, kappa)
heavy: EVQLVESGGGLVQPGGSLRLSCAASGYTFTNYGMNWVRQAPGKGLEWVGWINTYTGEPTYAADFKRRFTFSLDTSKSTAYLQMNSLRAEDTAVYYCAKYPHYYGSSHWYFDVWGQGTLVTVSSASTKGPSVFPLAPCSRSTSESTAALGCLVKDYFPEPVTVSWNSGALTSGVHTFPAVLQSSGLYSLSSVVTVPSSSLGTKTYTCNVDHKPSNTKVDKRV[human IgG4 Fc with S228P (EU numbers) not spelt out]AGGGGSGGGGSGGGGSGGGGSEVQLLESGGGLVQPGGSLRLSCAASGSIFSINHMAWYRQAPGKQRELVAGVNSRGTTNYVDSVKGRFTISRDNSKNTLYLQMNSLRAEDTAVYYCRALGGAVAAWGQGTLVTVSSGGGGSGGGGSGGGGSGGGGSEVQLVESGGGLVQPGGSLRLSCAASGFTFSSYGMSWVRQAPGKCLEWVSTISGGGRDTYYPDSVKGRFTISRDNSKNTLYLQMNSLRAEDTAVYYCARQNGITWFADWGQGTLVTVSSGGGGSGGGGSGGGGSGGGGSDIQMTQSPSSLSASVGDRVTITCRASESVDNYGISFMNWYQQKPGKAPKLLIYAASNQGSGVPSRFSGSGSGTDFTLTISSLQPEDFATYYCQQSKEVPWTFGCGTKVEIK
light: B1 light
notes: light: bevacizumab VL-kappa; also called H010-F22
For B3, the results for the concentration for a half-maximal effect (EC50) in [1] and in assay [9] were 3.44 nM and 8.92 nM, respectively. Besides, the IC50 amounted to 8.69 nM in [3], 5.4 nM in assay [8], 0.077 nM in assay [10] and 113 nM in assay [12].
